# Results as given in ChEMBL document CHEMBL5606458, “ASAP - ZIKV NS2B-NS3 protease fluorescence single point” (2024).
# In all, about 2,700 compounds went through this assay and about 160 (5.9%) showed an effect of 50% or more. The list shows a part of the results.
# Biological target: Nonstructural protein 3 (Zika virus) (UniProt A0A024AXB9)
# [1] = PRVABC59, Concentration 50.0 uM, Number of replicates 1.0
# [2] = PRVABC59, Concentration 15.0 uM, Number of replicates 1.0
# [3] = PRVABC59, Concentration 10.0 uM, Number of replicates 1.0
# UniProt A0A024AXB9, sequence (A0A024AXB9 as listed by the source): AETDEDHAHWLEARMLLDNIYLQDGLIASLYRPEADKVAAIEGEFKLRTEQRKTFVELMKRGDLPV
structure (smiles),measurement,setting,value
Cc1cc(CO)c2cccc(NC(=O)C3CCC(CN)CC3)c2n1 (centres undefined),inhibition,"PRVABC59, Concentration 49.95 uM, Number of replicates 2.0, Standard deviation 1.4301713707436838 %",93.7%
same,inhibition,"PRVABC59, Concentration 99.9 uM, Number of replicates 2.0, Standard deviation 0.5018131910126516 %",92.3%
CSCC[C@H](NC(=O)OC(C)(C)C)C(=O)N1CCC[C@H]1C(=O)Nc1cccc(CN)c1,inhibition,"PRVABC59, Concentration 49.5 uM, Number of replicates 2.0, Standard deviation 1.581266347515541 %",0.2%
same,inhibition,"PRVABC59, Concentration 99.01 uM, Number of replicates 2.0, Standard deviation 1.546934947174704 %",0.972%
same,inhibition,"PRVABC59, Concentration 198.0 uM, Number of replicates 2.0, Standard deviation 2.1346085705455513 %",2.7%
CC(C)(C)OC(=O)N1CCOC[C@H]1CNCc1nnc2ccccn12,inhibition,"PRVABC59, Concentration 49.5 uM, Number of replicates 2.0, Standard deviation 1.9960255811771535 %",-1.72%
same,inhibition,"PRVABC59, Concentration 99.01 uM, Number of replicates 2.0, Standard deviation 1.2346722656218103 %",-1.22%
same,inhibition,"PRVABC59, Concentration 198.0 uM, Number of replicates 2.0, Standard deviation 1.381215951736946 %",-0.678%
NCc1cccc(NC(=O)[C@]2(NC(=O)OCc3ccccc3)CCOC2)c1,inhibition,"PRVABC59, Concentration 49.5 uM, Number of replicates 2.0, Standard deviation 1.5769274927803825 %",-1.07%
same,inhibition,"PRVABC59, Concentration 99.01 uM, Number of replicates 2.0, Standard deviation 1.1798240639170976 %",2.06%
same,inhibition,"PRVABC59, Concentration 198.0 uM, Number of replicates 2.0, Standard deviation 1.1535693589868123 %",6.95%
C[C@@H]1CN(C2CCN(C(=O)C3CCN(c4ccc(C=O)cc4)CC3)CC2)C[C@H](C)O1,inhibition,[1],20.4%
O=C(Nc1cc(Cl)c(O)c(Cl)c1)c1cc(Cl)ccc1NS(=O)(=O)c1ccc(Oc2ccccc2Cl)cc1,inhibition,[2],84.9%
O=C(Nc1ccc([N+](=O)[O-])cc1)c1cc(Cl)ccc1NS(=O)(=O)c1ccc(Oc2ccccc2Cl)cc1,inhibition,[2],29.8%
O=Cc1ccc(N2CCC(C(=O)N3CCN(C(=O)c4ccco4)CC3)CC2)cc1,inhibition,[1],24.6%
O=Cc1ccc(N2CCC(C(=O)NCCc3ccc(Cl)cc3Cl)CC2)cc1,inhibition,[1],18.8%
Cn1cc(CN)c(NS(=O)(=O)c2ccc(Oc3ccccc3)cc2)n1,inhibition,"PRVABC59, Concentration 49.5 uM, Number of replicates 2.0, Standard deviation 0.28945899218881677 %",2.85%
same,inhibition,"PRVABC59, Concentration 99.01 uM, Number of replicates 2.0, Standard deviation 1.7759284478361246 %",1.35%
same,inhibition,"PRVABC59, Concentration 198.0 uM, Number of replicates 2.0, Standard deviation 3.118756723311272 %",1.95%
CC(C)c1ccc2c(c1)CC[C@H]1[C@](C)(CNC(=O)C3CCN(c4ccc(C=O)cc4)CC3)CCC[C@]21C,inhibition,[1],2.88%
CNC(=O)C1(C)CCN(C(=O)C2CCN(c3ccc(C=O)cc3)CC2)CC1,inhibition,[1],22.8%
O=Cc1ccc(N2CCC(C(=O)NCc3cc(F)c(F)cc3F)CC2)cc1,inhibition,[3],17%
O=Cc1ccc(N2CCC(C(=O)NCc3ccc(C(=O)N4CCCC4)cc3)CC2)cc1,inhibition,[3],24.7%
O=C(c1cc(Cl)ccc1NS(=O)(=O)c1ccc(Oc2ccccc2Cl)cc1)N1CCN(c2ccccc2[N+](=O)[O-])CC1,inhibition,[2],26.4%
O=Cc1ccc(N2CCC(C(=O)N(Cc3cnn(-c4ccccc4)c3)C3CC3)CC2)cc1,inhibition,[1],26.1%
CC(C)N(C[C@H](O)COc1ccc(CC(N)=O)cc1)C(=O)C1CCN(c2ccc(C=O)cc2)CC1,inhibition,[1],23.4%
O=Cc1ccc(N2CCC(C(=O)N3CCN(c4ccc(F)cc4F)CC3)CC2)cc1,inhibition,[1],20.8%
NCc1ncc(C(=O)Nc2ccccc2N2CCC(CO)CC2)c(C(F)(F)F)n1,inhibition,"PRVABC59, Concentration 49.5 uM, Number of replicates 2.0, Standard deviation 2.673647712624359 %",4.17%
same,inhibition,"PRVABC59, Concentration 99.01 uM, Number of replicates 2.0, Standard deviation 2.2429929004139844 %",6.59%
same,inhibition,"PRVABC59, Concentration 198.0 uM, Number of replicates 2.0, Standard deviation 2.184034516969065 %",8.61%
Cc1cnccc1NC(=O)c1cc(C2CC2)n(C)c1C,inhibition,"PRVABC59, Concentration 49.5 uM, Number of replicates 2.0, Standard deviation 1.2081823180565616 %",-2.23%
same,inhibition,"PRVABC59, Concentration 99.01 uM, Number of replicates 2.0, Standard deviation 2.393209010027268 %",1.49%
same,inhibition,"PRVABC59, Concentration 198.0 uM, Number of replicates 2.0, Standard deviation 1.424755669297428 %",12.1%
CN1CCN(c2ccc(CCNS(=O)(=O)c3ccc(F)cc3)cc2)CC1,inhibition,"PRVABC59, Concentration 49.5 uM, Number of replicates 2.0, Standard deviation 6.510129757356286 %",-3%
same,inhibition,"PRVABC59, Concentration 99.01 uM, Number of replicates 2.0, Standard deviation 7.557780967168432 %",-1.21%
same,inhibition,"PRVABC59, Concentration 198.0 uM, Number of replicates 2.0, Standard deviation 5.825870108397918 %",3.11%
Cc1sc(NC(=O)c2cc(Cl)ccc2NS(=O)(=O)c2ccc(Oc3ccccc3Cl)cc2)nc1-c1ccc(Cl)cc1,inhibition,[2],33.2%
Cc1cc(CO)c2cccc(NCc3ccc(S(N)(=O)=O)cc3)c2n1,inhibition,"PRVABC59, Concentration 49.95 uM, Number of replicates 2.0, Standard deviation 2.3986730749821903 %",-5.11%
same,inhibition,"PRVABC59, Concentration 99.9 uM, Number of replicates 2.0, Standard deviation 1.886822696290366 %",-8.96%
CN(Cc1ccccc1)Cc1cccc(NC(=O)c2ccc3c(c2)B(O)OC3)c1,inhibition,"PRVABC59, Concentration 49.5 uM, Number of replicates 2.0, Standard deviation 7.115138832598285 %",-4.03%
same,inhibition,"PRVABC59, Concentration 99.01 uM, Number of replicates 2.0, Standard deviation 7.051352021894261 %",-1.66%
same,inhibition,"PRVABC59, Concentration 198.0 uM, Number of replicates 2.0, Standard deviation 6.780740847478425 %",2.95%
O=Cc1ccc(N2CCC(C(=O)Nc3c(F)cc(Br)cc3F)CC2)cc1,inhibition,[1],18.9%
COC(=O)c1c[nH]c(-c2ccccc2C(=O)Nc2cnn(C)c2)c1,inhibition,"PRVABC59, Concentration 49.5 uM, Number of replicates 2.0, Standard deviation 1.5718630062911239 %",-4.09%
same,inhibition,"PRVABC59, Concentration 99.01 uM, Number of replicates 2.0, Standard deviation 1.3253228242905268 %",-4%
same,inhibition,"PRVABC59, Concentration 198.0 uM, Number of replicates 2.0, Standard deviation 1.3225986205901765 %",-2.07%
Cc1ccc(NC(=O)C2CCN(c3ccc(C=O)cc3)CC2)c(Br)c1,inhibition,[1],27%
O=C(Nc1ccncc1I)c1cc(Cl)ccc1NS(=O)(=O)c1ccc(Oc2ccccc2Cl)cc1,inhibition,[2],27.7%
CN1CCN(C(=O)C2CCN(C(=O)c3cc(Cl)ccc3NS(=O)(=O)c3ccc(Oc4ccccc4Cl)cc3)CC2)CC1,inhibition,[2],-3.6%
O=Cc1ccc(N2CCC(C(=O)N3C[C@@H]4C[C@H]3CN4Cc3ccccc3)CC2)cc1,inhibition,[1],26.4%
Cn1ccnc1[C@H]1CCCN(c2nc(N)nc3[nH]ccc23)C1,inhibition,"PRVABC59, Concentration 49.5 uM, Number of replicates 2.0, Standard deviation 3.8174405200431902 %",-2.28%
same,inhibition,"PRVABC59, Concentration 99.01 uM, Number of replicates 2.0, Standard deviation 1.4789216188918706 %",-3.06%
same,inhibition,"PRVABC59, Concentration 198.0 uM, Number of replicates 2.0, Standard deviation 2.077532676089371 %",-2.23%
O=C(Nc1c(F)cc(Br)cc1F)c1cc(Cl)ccc1NS(=O)(=O)c1ccc(Oc2ccccc2Cl)cc1,inhibition,[2],21.6%
NCc1cccc(NC(=O)[C@]2(NC(=O)OCc3ccccc3)CCc3ccccc32)c1,inhibition,"PRVABC59, Concentration 49.5 uM, Number of replicates 2.0, Standard deviation 0.7623792541417952 %",2.16%
same,inhibition,"PRVABC59, Concentration 99.01 uM, Number of replicates 2.0, Standard deviation 1.7788848701350575 %",2.87%
same,inhibition,"PRVABC59, Concentration 198.0 uM, Number of replicates 2.0, Standard deviation 1.0657751133151034 %",6.53%
COc1cc(NC(=O)c2cc(Cl)ccc2NS(=O)(=O)c2ccc(Oc3ccccc3Cl)cc2)ccc1Br,inhibition,[2],60.4%
O=C(N[C@H](c1ccccc1)C(F)(F)F)c1cc(Cl)ccc1NS(=O)(=O)c1ccc(Oc2ccccc2Cl)cc1,inhibition,[2],60.6%
Cn1nc(CN2CCC(c3c[nH]c4cccnc34)CC2)c2cccnc21,inhibition,"PRVABC59, Concentration 49.5 uM, Number of replicates 2.0, Standard deviation 2.4193874080883244 %",-2.91%
same,inhibition,"PRVABC59, Concentration 99.01 uM, Number of replicates 2.0, Standard deviation 2.730562374311561 %",-2.31%
same,inhibition,"PRVABC59, Concentration 198.0 uM, Number of replicates 2.0, Standard deviation 1.9266932778068837 %",-2.15%
O=Cc1ccc(N2CCC(C(=O)Nc3cc(Cl)c(F)c(Cl)c3)CC2)cc1,inhibition,[1],20.1%
O=C(c1cc(Cl)ccc1NS(=O)(=O)c1ccc(Oc2ccccc2Cl)cc1)N1CCC[C@H]1c1cccc(F)c1,inhibition,[2],9.24%
